# Source: ChEMBL document CHEMBL4888484, “Replenishing the malaria drug discovery pipeline: Screening and hit evaluation of the MMV Hit Generation Library 1 (HGL1) against asexual blood stage Plasmodium falciparum ,using a nano luciferase reporter read-out” (2022)
# Among all 150,000 compounds or so, about 540 (0.36%) showed an effect of 50% or more. Some of the results follow.
# Tested on: Plasmodium falciparum
# Assay: Primary screen in NF54 nanoGlo assay, in single point, at 2uM, 72h; a lower Z score goes with more inhibition
# Assay type: functional, Erythrocyte
# Settings: timepoint 72 hour
Compound,% Inhibition,Z score
CCc1nsc(NCC2=NS(=O)(=O)c3ccccc3N2)n1,-2%,0.35
CC(C)(C)CC(CO)NC(=O)C(O)c1ccccc1 (stereo unspecified),-5%,0.59
COc1ccc(S(=O)(=O)N(CCO)Cc2nccn2C)c2c1CCCC2,-1%,0.16
COc1cccc(OC)c1OC1CCN(c2ncccn2)CC1,-4%,0.35
CCC(C)C(NC(=O)c1ccc(OC)cc1)c1nc(-c2ccco2)no1 (stereo unspecified),-17%,2.03
Cc1ccc2oc(C(=O)c3ccc(Cl)cc3)c(-c3cnn(-c4ccccc4)c3)c2c1,-32%,3.81
O=C(Nc1cc(C(F)(F)F)n[nH]1)c1ccn2cncc2c1,-3%,0.41
O=S(=O)(C1CC1)N1CCCN(Cc2cc3n(n2)CCCC3)CC1,-3%,0.55
CC(C)(C)C1CCC2(CC1)NC(=O)c1ccccc1O2 (stereo unspecified),-15%,1.59
COc1ccc(N2C(=O)c3ccccc3N[C@@H]2c2csnn2)c(OC)c1,-4%,0.52
O=C(c1ccsc1)N1CC[C@H](Cc2nnc(-c3cccnc3)[nH]2)C1,-4%,0.66
Cc1ccccc1CN1CC(=O)N(C2CC2)C1,-18%,2.74
CCOC(=O)Cc1c(C)nc2ncnn2c1N1CCN(CC(=O)N(C)c2ccccc2)CC1,2%,-0.27
Cc1cc(C)nc(NCCc2ccn(C)n2)n1,-14%,1.88
C[C@H]1CCC(=O)N1Cc1c(F)ccc(Cl)c1Cl,-11%,1.33
CCN1C[C@@H](c2ccccc2)CC2(CCN(Cc3csc(NC)n3)CC2)C1,-4%,0.92
C[C@@H](CCc1ccccc1)NC(=O)C1CCN(S(=O)(=O)Cc2ccccc2)CC1,-5%,0.87
c1ccc(-c2cnc3n2C[C@H](CNCc2ccncc2)OC3)cc1,-4%,0.55
c1ccc(Oc2ccc3[nH]c(-c4nnc(-c5ccccn5)s4)cc3c2)cc1,28%,-3.67
O=C(CCc1nc2ccccc2c(=O)[nH]1)N1CC[C@H](N2CCC2)C1,0%,-0.08
COC(=O)[C@H](NC(=O)c1cc(C#N)cn1C)c1cc(C)c(O)c(C)c1,2%,-0.31
CCN1CCc2c(c(CN(CC3CC3)C(=O)c3cccc(OC)c3)nn2-c2ccccc2)C1,13%,-2.2
COC1(C(F)(F)F)CCN(c2cnccn2)CC1,-3%,0.58
CCS(=O)(=O)c1cccc(NC2CCC2)c1,3%,-0.31
C[C@H]1CN(Cc2ncccc2C(=O)O)CCN1c1ccccc1,-5%,0.63
Cc1cc(C)c(S(=O)(=O)NC2CCCC(C(=O)O)C2)s1 (stereo unspecified),4%,-0.69
O=C(c1ccc2[nH]cnc2c1)N1CCN(C(=O)c2cc3cc(F)ccc3s2)CC1,-11%,1.43

Compound,% Inhibition,Z score
COc1ccc(N2CCN(C(=O)Cn3cccc3-c3nnc(C4CCC4)o3)CC2)cc1,3%,-0.43
O=C(c1cc2n(n1)CCN(Cc1ccc(Cl)c(Cl)c1)C2=O)N1CCN(Cc2ccccc2)CC1,-1%,0.11
COc1ccc(CN2C[C@H]3CC[C@@H](C2)N(C(=O)c2nc(C)c[nH]2)C3)cc1,-2%,0.32
COC(=O)[C@@H]1C[C@H](O)CCN1C(=O)C1CCCCC1,8%,-1.01
CS(=O)(=O)CCCNc1cc(F)ccc1OC(F)F,-7%,0.61
Cc1n[nH]nc1C(=O)NC(Cc1ccccc1)[C@H]1C[C@H](O)C1 (stereo partly specified),-15%,1.37
CCNS(=O)(=O)CCNC(=O)[C@H](CC)c1cccc(C(F)(F)F)c1,-3%,0.33
COc1ccc2cc1Oc1cccc(c1)CO[C@H]1CCN(C(=O)C(C)(C)N3CCOCC3)C[C@H]1NC(=O)CC2,-10%,1.86
Cc1nc(CNC(=O)c2c(C)n[nH]c2C2CC2)cs1,15%,-1.9
O=C(NC[C@H]1CCCO1)c1cnc(Cc2c(Cl)cccc2Cl)nc1O,-8%,1.29
CC(C)c1cc(C(=O)N2CC[C@@](O)(C(F)F)C2)no1,0%,0.05
Cc1nc(C2(CC3CC3)CCN(S(=O)(=O)c3ccc(F)c(F)c3)CC2)no1,-2%,0.26
CN(CCc1ccncc1)S(=O)(=O)C1CN(C(=O)C2CCCC2)C1,0%,0.05
O=C(N[C@H]1CCN(CC2CCCC2)C1)c1nccc2cccnc12,36%,-4.29
CCc1ncsc1C(=O)Nc1ccc2nc(N3CCCC3)sc2c1,-2%,0.23
O=C(Cn1cc2ccccc2n1)N[C@H]1CCOC[C@@H]1Oc1ccccn1,-6%,1.03
COc1cc2c(cc1OC)CC(=O)N(CC(=O)NCCN1CCOCC1)C=C2,-4%,0.52
COC(=O)CCn1cc(-c2cc(-c3ccc(OC)nc3)nc(N)c2C#N)cn1,-14%,1.76
CCc1cc(CNC(=O)NCc2ccco2)[nH]n1,-9%,1.58
COc1ccc(C(=O)NC(c2ccccc2)[C@H]2C[C@H](O)C2)cc1 (stereo partly specified),-7%,0.92
O=C(C[C@@]1(O)C(=O)N(Cc2ccc3c(c2)OCO3)c2ccccc21)c1ccccn1,5%,-1.02
CCCOc1ccccc1CCNC(=O)N1CCNC(=O)[C@@H]1CC(=O)NC,-6%,0.87
CCc1nc(N)n(CC(=O)NCc2ccccc2)c(=O)c1C,5%,-0.49
O=C(NC1CCCCC1)C1(NCc2c[nH]c3ccccc23)CCCCC1,6%,-0.89
Cc1cc(-c2nc(C3(C)CCC3)no2)cnn1,-8%,1.5
O=C(c1cnccn1)N(Cc1ccco1)c1ccc(Cl)cc1,3%,-0.64
